Results are given in words; binding and its absence hold for the method and conditions named. Binding seen in cells or lysates may run through a third protein. Some entries that bind do so weakly or less than the wild type.
Legend:
[1] = biological target: Flag-mMOR-NLuc (mouse mu-opioid receptor, wild type) (mouse) (UniProt P42866); test: FRET or BRET; live control HEK293 cells with endogenous GRKs; Flag-mMOR-Nluc donor, β-arrestin2-Venus acceptor; morphine 10 min at 37 °C
[2] = biological target: Flag-mMOR-NLuc (mouse mu-opioid receptor, wild type) (mouse) (UniProt P42866); test: FRET or BRET; live ΔQ-GRK HEK293 cells overexpressing a single GRK (GRK2, GRK3, GRK5 or GRK6; for STANT-2A GRK2 or GRK5); MOR-Nluc donor, β-arrestin2-Venus acceptor; DAMGO, fentanyl or morphine 10 min at 37 °C
[3] = biological target: Flag-mMOR-NLuc (mouse mu-opioid receptor, wild type) (mouse) (UniProt P42866); test: condition: only in ΔQ-GRK cells (GRK2/3/5/6 knocked out); FRET or BRET; live ΔQ-GRK HEK293 cells (GRK2/3/5/6 knocked out); Flag-mMOR-Nluc donor, β-arrestin2-Venus acceptor; DAMGO, fentanyl or morphine 10 min at 37 °C
[4] = biological target: Flag-mMOR-NLuc (mouse mu-opioid receptor, wild type) (mouse) (UniProt P42866); test: FRET or BRET; live HEK293 cells with endogenous GRKs (control; also ΔGRK2/3 and ΔGRK5/6 cells); Flag-mMOR-Nluc donor, β-arrestin2-Venus acceptor; DAMGO or fentanyl (for the STANT-2A mutant also morphine) 10 min at 37 °C in HBSS pH 7.4; baseline-corrected BRET ratio
[5] = biological target: Flag-mMOR-NLuc (mouse mu-opioid receptor, wild type) (mouse) (UniProt P42866); test: FRET or BRET; live transfected HEK293 cells (cell line not stated); MOR-Nluc (WT or STANT-2A) donor, GRK-YFP acceptor; vehicle, DAMGO, fentanyl or morphine 10 min at 37 °C; raw BRET ratio at 10 µM and concentration response curves
[6] = biological target: mMOR STANT-2A (Flag-mMOR-NLuc with Thr376Ala and Thr379Ala) (mouse) (UniProt P42866); test: as above

Sequences of proteins named here, by UniProt entry; tags and fusion partners are left off.
UniProt P32121: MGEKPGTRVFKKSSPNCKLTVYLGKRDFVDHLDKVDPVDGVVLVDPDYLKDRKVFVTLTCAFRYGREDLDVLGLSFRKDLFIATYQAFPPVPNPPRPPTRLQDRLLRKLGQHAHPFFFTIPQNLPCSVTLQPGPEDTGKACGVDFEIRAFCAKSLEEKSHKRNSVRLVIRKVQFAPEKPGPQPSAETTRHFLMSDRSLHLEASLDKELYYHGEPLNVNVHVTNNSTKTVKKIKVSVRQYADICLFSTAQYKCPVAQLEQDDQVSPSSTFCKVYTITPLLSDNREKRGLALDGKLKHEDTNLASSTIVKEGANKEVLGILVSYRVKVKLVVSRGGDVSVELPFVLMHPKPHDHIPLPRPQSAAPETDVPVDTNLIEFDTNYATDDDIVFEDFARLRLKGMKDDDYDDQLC
UniProt P35626: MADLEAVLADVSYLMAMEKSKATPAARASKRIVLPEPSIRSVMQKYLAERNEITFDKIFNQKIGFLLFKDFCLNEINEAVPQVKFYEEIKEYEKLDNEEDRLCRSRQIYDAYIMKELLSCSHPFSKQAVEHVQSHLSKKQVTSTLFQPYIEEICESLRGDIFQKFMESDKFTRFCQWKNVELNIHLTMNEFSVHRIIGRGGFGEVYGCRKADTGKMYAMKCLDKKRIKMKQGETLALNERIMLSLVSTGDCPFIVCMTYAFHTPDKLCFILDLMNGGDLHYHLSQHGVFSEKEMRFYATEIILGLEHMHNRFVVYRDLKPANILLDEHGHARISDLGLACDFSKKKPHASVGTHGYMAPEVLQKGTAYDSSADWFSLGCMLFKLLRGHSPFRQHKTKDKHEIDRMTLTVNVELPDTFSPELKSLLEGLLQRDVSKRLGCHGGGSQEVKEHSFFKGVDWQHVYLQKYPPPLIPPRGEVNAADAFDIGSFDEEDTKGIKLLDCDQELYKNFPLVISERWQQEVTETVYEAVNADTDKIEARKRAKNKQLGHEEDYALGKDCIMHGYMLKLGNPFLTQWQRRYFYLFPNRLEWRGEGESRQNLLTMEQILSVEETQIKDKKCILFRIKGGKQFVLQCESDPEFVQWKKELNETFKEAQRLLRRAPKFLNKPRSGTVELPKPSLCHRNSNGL
UniProt P25098: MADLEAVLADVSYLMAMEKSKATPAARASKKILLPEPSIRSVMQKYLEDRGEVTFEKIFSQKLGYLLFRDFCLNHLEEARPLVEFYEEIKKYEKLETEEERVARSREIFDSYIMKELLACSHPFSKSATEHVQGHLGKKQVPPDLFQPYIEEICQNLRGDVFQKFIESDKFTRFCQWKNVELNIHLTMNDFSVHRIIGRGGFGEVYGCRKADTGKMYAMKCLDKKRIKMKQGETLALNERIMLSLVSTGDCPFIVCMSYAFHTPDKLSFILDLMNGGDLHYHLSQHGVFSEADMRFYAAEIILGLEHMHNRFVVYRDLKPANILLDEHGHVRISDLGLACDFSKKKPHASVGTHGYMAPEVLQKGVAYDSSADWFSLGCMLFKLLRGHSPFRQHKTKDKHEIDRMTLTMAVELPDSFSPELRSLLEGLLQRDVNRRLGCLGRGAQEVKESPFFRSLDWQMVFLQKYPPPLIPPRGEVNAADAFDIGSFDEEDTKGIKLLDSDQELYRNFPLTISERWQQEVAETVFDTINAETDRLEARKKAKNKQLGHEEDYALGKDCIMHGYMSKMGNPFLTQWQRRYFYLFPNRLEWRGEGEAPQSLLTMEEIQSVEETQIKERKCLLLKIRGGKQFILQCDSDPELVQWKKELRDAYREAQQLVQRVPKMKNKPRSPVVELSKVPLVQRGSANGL

Row | binding [1] | binding [2] | binding [3] | binding [4] | binding [5] | binding [6] | Substance
1 | binds weakly | binds | no binding | binds |  |  | β-arrestin2-Venus (from UniProt P32121 1-409)
2 |  |  |  |  | binds | binds | GRK3-YFP (human) (from UniProt P35626 1-688) (enzyme)
3 |  |  |  |  | binds | binds | GRK2-YFP (human) (from UniProt P25098 1-689) (enzyme)
